Over roughly 33,000 sequences, “E-score (-0.5 to 0.5)” has its median near -0.013; the highest 2% begin near 0.3. Some of the results follow.

In the assay the target is T1, Msn1 (UniProt P22148).
T1 sequence: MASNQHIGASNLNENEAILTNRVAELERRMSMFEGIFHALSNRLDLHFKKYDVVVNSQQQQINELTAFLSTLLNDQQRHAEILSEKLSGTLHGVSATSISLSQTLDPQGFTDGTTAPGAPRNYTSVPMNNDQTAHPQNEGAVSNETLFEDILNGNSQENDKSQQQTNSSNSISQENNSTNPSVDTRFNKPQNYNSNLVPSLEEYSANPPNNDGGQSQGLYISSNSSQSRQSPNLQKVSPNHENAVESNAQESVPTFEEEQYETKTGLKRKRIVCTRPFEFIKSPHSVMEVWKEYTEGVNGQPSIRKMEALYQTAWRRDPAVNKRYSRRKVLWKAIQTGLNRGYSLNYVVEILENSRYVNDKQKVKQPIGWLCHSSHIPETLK
Briefly: PBM E-score (8-mer binding enrichment) (E-score (-0.5 to 0.5)); higher = stronger / more preferred TF binding; most listed sequences are background and not binding sites. The note with it: protein concentration: 200 nM; construct: GST-full length. The method, boiled down: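 For each ungapped eight-base word taken together with its reverse complement, the Universal PBM Analysis Suite assigned an E-score. Binding data came from GST-tagged yeast transcription factors, applied at about 100-200 nM, on universal all-10-mer Agilent arrays made double-stranded by primer extension. Fluorescent anti-GST marked bound protein, and scans were normalised with masliner.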
Turning to ATCCCATA, the “PBM E-score” value is -0.0979. As for CAAGTTGG, the figure is 0.139.

With CAGGTACC, the “PBM E-score” value was -0.0898. Then GAAGCGTC, with -0.0802. Then CCTCCTCG, with -0.346. On to GAACGGGC, for which the “PBM E-score” value is -0.175. For the sequence AGTCTGCG, the “PBM E-score” value was -0.127. CACGCAGA: the “PBM E-score” value is 0.0532. As for ACTACAAC, the figure is 0.0974; as for TATGGGAA, -0.0228; as for AAAAACGA, 0.126.

Regarding TCTCCGCA, the “PBM E-score” value stood at 0.0234.

On to GTTGGGGA, for which the “PBM E-score” value is -0.0295.

On to AGTGGGTA, for which the “PBM E-score” value turned out to be 0.0163. Take AGCATCCC: the “PBM E-score” value is -0.175. CACATGGG: the “PBM E-score” value is -0.22. For the sequence AGACCGAT, the “PBM E-score” value was 0.0374. As for CCTCCCGC, the figure is -0.0713. On to ACAGGACC, for which the “PBM E-score” value turned out to be 0.0142. In the case of GCTGACCA, the “PBM E-score” value is -0.106.

On to GCGAGACC, for which the “PBM E-score” value is -0.0729. In the case of ACTTGTTC, the “PBM E-score” value was found to be 0.131. As for AATGAATT, the figure is 0.115; as for GAAGAACC, -0.169. In the case of AGCACGAG, the “PBM E-score” value was -0.127.

Regarding GGTATCAA, the “PBM E-score” value turned out to be 0.0141.

Regarding AGGGATCC, the “PBM E-score” value is -0.287.

On to ATGTCGCG, for which the “PBM E-score” value came to 0.387. As for CGAGAACG, the figure is 0.0519; as for CAGGGCCA, -0.369; as for CTGATTTC, -0.104. Take AACGCTAT: the “PBM E-score” value was -0.0461.

Regarding ACGATCCT, the “PBM E-score” value is -0.0372. On to CTCAGCCA, for which the “PBM E-score” value was -0.12. For CACACCCG, the “PBM E-score” value was 0.0155.

In the case of GCCAAAAC, the “PBM E-score” value was -0.0976. TAATAAAA: the “PBM E-score” value amounted to 0.282.

As to CGAATGCG, the “PBM E-score” value is 0.136. Turning to AAGAGGGC, the “PBM E-score” value is -0.216. As to ACTGTCCC, the “PBM E-score” value is 0.127. TAGTCGCA: the “PBM E-score” value was -0.032. CAAATTAG: the “PBM E-score” value turned out to be 0.163. Take AAATGTTA: the “PBM E-score” value is 0.165. Consider AAGGATGG, for which the “PBM E-score” value was -0.0333. Take GGGCTGCA: the “PBM E-score” value is -0.0742. Take ATCGACCC: the “PBM E-score” value is -0.11. Regarding GGCTGTAC, the “PBM E-score” value was -0.0827. In the case of GGTAATGA, the “PBM E-score” value came out at 0.116. As for AGGTCAAC, the figure is -0.0773; as for ATCGTCGA, -0.166; as for GCTAGAAC, -0.0835. As for CCTGGCCA, the figure is -0.107; as for CGTCCGCC, -0.165; as for GATGCGGA, 0.107.

Take GTCTCTCA: the “PBM E-score” value was determined as 0.14. Regarding ATAATACC, the “PBM E-score” value is 0.136. Then CCTGGAAC, with -0.0583; and CCAGATCA, with 0.109; and GGGTGCAC, with -0.237. As for CCGGCGGA, the figure is 0.0417. In the case of CATCAGAG, the “PBM E-score” value is -0.175. On to GCTTGAAC, for which the “PBM E-score” value came out at 0.187.

With CCGGACCG, the “PBM E-score” value worked out at 0.0321. Consider TACAAAGA, for which the “PBM E-score” value worked out at 0.208. Turning to ACCGATAG, the “PBM E-score” value was determined as 0.0834. Then AGCAATCC, with -0.175; and GGGACACC, with 0.185.

On to ACGTTGTA, for which the “PBM E-score” value turned out to be 0.101. Then CAAGTGCC, with -0.15; and ACTGGGCG, with -0.201. Take ACGGTGCA: the “PBM E-score” value is -0.156. Take CTCGGGAC: the “PBM E-score” value came to 0.198. Turning to TACTGTGA, the “PBM E-score” value came out at 0.237.

For AACTGAAG, the “PBM E-score” value stood at 0.0752. Then AGACAGTC, with 0.0234.

GCAATGGC: the “PBM E-score” value was -0.287.

On to TCAAGGCA, for which the “PBM E-score” value is -0.27. As for CCTCGGAG, the figure is 0.113; as for AGCCAGAA, -0.0454. Turning to AGGTCCAA, the “PBM E-score” value was -0.00743.

Turning to CAGGATAA, the “PBM E-score” value is -0.0283. AACGGATT: the “PBM E-score” value came to 0.265. With CAATATTC, the “PBM E-score” value was 0.186.

Turning to CTCATTTA, the “PBM E-score” value was -0.035. Take ATGCGGGG: the “PBM E-score” value is -0.104. Regarding CCAGGAAC, the “PBM E-score” value was -0.148. On to GGTAAATA, for which the “PBM E-score” value is 0.0196. As for CCAATTCA, the figure is 0.0106; as for CTTAAGTA, 0.118.

For AGTTACCA, the “PBM E-score” value was found to be 0.06. Then CATGTGCA, with -0.29; and AGCATGGC, with -0.142; and ACGGAGGG, with -0.229. As to CCTGTACA, the “PBM E-score” value was determined as 0.224. As for GCGGGATA, the figure is 0.0848. On to AGGAGACG, for which the “PBM E-score” value is -0.298. As for CGCAAGAC, the “PBM E-score” value stood at 0.0173. Then ATACATAA, with 0.21. For GCCATATA, the “PBM E-score” value is -0.00728. As for CCACACAG, the figure is -0.00645; as for AACGATGT, 0.249. Turning to CAGGCATG, the “PBM E-score” value is -0.0363. For the sequence AGCGATCC, the “PBM E-score” value is -0.101. Consider AGCTCCCT, for which the “PBM E-score” value was -0.246.

For GCTCTGGA, the “PBM E-score” value came to 0.0294.

For CAGCGACG, the “PBM E-score” value was -0.102. As for GCTAGACC, the figure is -0.208; as for ATGCAGGA, -0.0548. Consider GTTACGTA, for which the “PBM E-score” value is -0.133.

For the origin of these results see the supplement of paper PMC3334620.
